Measurements as given in the supplement of paper PMC12217912.
The list shows a part of the results. The full chains were built here from the parent and the listed change. Inactive controls read about 0.05.

B1: TEV protease; numbered along this chain (parent)
chain: MGESLFKGPRDYNPISSSICHLTNESDGHTTSLYGIGFGPFIITNKHLFRRNNGTLVVQSLHGVFKVKDTTTLQQHLVDGRDMIIIRMPKDFPPFPQKLKFREPQREERICLVTTNFQTKSMSSMVSDTSCTFPSGDGIFWKHWIQTKDGQCGSPLVSTRDGFIVGIHSASNFTNTNNYFTSVPKNFMELLTNQEAQQWVSGWRLNADSVLWGGHKVFMVKPEEPFQPVKEATQL

Variants of: B1
Assay: raw area under fraction-flipped curve 0-4 h after induction (AUC4h, not background-subtracted), DNA-recorder readout of cleavage of the substrate (dimensionless); higher = more cleavage of the substrate by the protease variant
Conditions: temperature: 34 °C; time window: 0-4 h after rhamnose induction
Method: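 In vivo DNA recorder in E. coli TOP10(DE3) ΔrhaA at 34 °C. Each TEVp single-site mutant (parent TEVp 0) is paired with a single-site variant of the 7-mer TEVs (canonical ENLYFQ|S). The substrate sits between flexible linkers in a Bxb1-sfGFP-TEVs-SsrA fusion, so cleavage stabilises Bxb1 and speeds flipping of a recombination array, read by NGS. The value is the raw area under the fraction-flipped curve over 0-4 h after rhamnose induction (AUC4h), with ≥20 reads per time point. It is not background-subtracted; inactive controls average about 0.047.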
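Further: Bxb1 expression induced with 0.2% (w/v) L-rhamnose at OD600 near 0.5, cultures sampled hourly, flipped fraction per protease–substrate barcode pair counted by paired-end Illumina sequencing.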

Variant	area with substrate ENLYAQS	area with substrate ENLYCQS	area with substrate ENLYGQS	area with substrate ENLYHQS	area with substrate ENLYIQS	area with substrate ENLYKQS	area with substrate ENLYLQS	area with substrate ENLYMQS	area with substrate ENLYNQS	area with substrate ENLYPQS	area with substrate ENLYQQS	area with substrate ENLYRQS	area with substrate ENLYTQS	area with substrate ENLYVQS	area with substrate ENLYWQS	area with substrate ENLYYQS	area with substrate ENLYSQS	area with substrate ENLYEQS	area with substrate ENLYDQS
MGESLFKGPRDYNPISSSICHLTNESDGHTTSLYGIGFGPFIITNKHLFRRNNGTLVVQSLHGVFKVKDTTTLQQHLVDGRDMIIIRMPKDFPPFPQKLKFREPQREERICLVTTNFQTKSMSSMVSDTSCTFPSGDGIFWKHWIQTKDGQCGSPLVSTRLGFIVGIHSASNFTNTNNYFTSVPKNFMELLTNQEAQQWVSGWRLNADSVLWGGHKVFMVKPEEPFQPVKEATQL [D161L]	0.0497	0.0645	0.0665	0.0505	0.0649	0.0374	0.0663	0.0594	0.0638	0.0546	0.0697	0.0563	0.0438	0.0661	0.0505	0.0476	–	–	–
MGESLFKGPRDYNPISSSICHLTNESDGHTTSLYGIGFGPFIITNKHLFRRNNGTLVVQSLHGVFKVKDTTTLQQHLVDGRDMIIIRMPKDFPPFPQKLKFFEPQREERICLVTTNFQTKSMSSMVSDTSCTFPSGDGIFWKHWIQTKDGQCGSPLVSTRDGFIVGIHSASNFTNTNNYFTSVPKNFMELLTNQEAQQWVSGWRLNADSVLWGGHKVFMVKPEEPFQPVKEATQL [R102F]	0.021	–	0.0558	–	–	0.0218	–	–	0.0637	0.0862	–	–	–	–	–	–	0.0432	–	–
MGESLFKGPRDYNPISSSICHLTNESDGHTTSLYGIGFGPFIITNKHLFRRNNGTLVVQSLHGVFKVKDTTTLQQHLVDGRDMIIIRMPKDFPPFPQKLKFREPQREERICLVTTNFQTKSMSSMVSDTSCTFPSGDGIFWKSWIQTKDGQCGSPLVSTRDGFIVGIHSASNFTNTNNYFTSVPKNFMELLTNQEAQQWVSGWRLNADSVLWGGHKVFMVKPEEPFQPVKEATQL [H143S]	0.0732	0.0858	0.0629	–	0.0903	0.0687	0.0748	–	0.0494	0.0585	0.0601	0.0708	–	0.0839	0.0884	0.068	0.0803	0.049	–
MGESLFKGPRDYNPISSSICHLTNESDGHTTSLYGIGFGPFIITNKHLFRRNNGTLVVQSLHGVFKVKDTTTLQQHLVDGRDMIIIRMPKDFPPFPQKLKFREPQREERICLVTTNFQTKSMSSMVSDTSCTFPSGDGIFWKHWIQTKDGQCGSPLVSTRDGFIVGIHSASNFTNTRNYFTSVPKNFMELLTNQEAQQWVSGWRLNADSVLWGGHKVFMVKPEEPFQPVKEATQL [N177R]	0.0958	0.112	–	0.0723	0.172	0.0515	–	–	0.0799	0.0737	–	0.0627	0.0995	–	0.0963	–	–	0.0793	0.0478
MGESLFKGPRDYNPISSSICHLTNESDGHTTSLYGIGFGPFIITNKHLFRRNNGTLVVQSLHPVFKVKDTTTLQQHLVDGRDMIIIRMPKDFPPFPQKLKFREPQREERICLVTTNFQTKSMSSMVSDTSCTFPSGDGIFWKHWIQTKDGQCGSPLVSTRDGFIVGIHSASNFTNTNNYFTSVPKNFMELLTNQEAQQWVSGWRLNADSVLWGGHKVFMVKPEEPFQPVKEATQL [G63P]	0.0478	–	0.0592	0.0621	0.0738	0.0404	–	0.0647	0.0705	0.0299	0.0602	–	0.057	–	0.0687	–	0.0592	0.0554	0.04
MGESLFKGPRDYNPISSSICHLTNESDGHTTSLYGIGFGPFIITNKHLFRRNNGTLVVQSLHGVFKVKDTTTLQQHLVDGRDMIIIRMPKDFPPFPQKLKFREPQREERICLVSTNFQTKSMSSMVSDTSCTFPSGDGIFWKHWIQTKDGQCGSPLVSTRDGFIVGIHSASNFTNTNNYFTSVPKNFMELLTNQEAQQWVSGWRLNADSVLWGGHKVFMVKPEEPFQPVKEATQL [T114S]	0.073	–	0.07	–	–	0.0632	–	–	0.0617	0.0747	0.0507	0.072	–	0.136	0.0721	–	0.0746	–	–
MGESLFKGPRDYNPISSSICHLTNESDGHTTSLYGIGFGPFIITNKHLFRRNNGTLVVQSLHGVFKVKDTTTLQQHLVDGRDMIIIRMPKDFPPFPQKLKFREPQREERICLVGTNFQTKSMSSMVSDTSCTFPSGDGIFWKHWIQTKDGQCGSPLVSTRDGFIVGIHSASNFTNTNNYFTSVPKNFMELLTNQEAQQWVSGWRLNADSVLWGGHKVFMVKPEEPFQPVKEATQL [T114G]	0.0624	0.109	0.0818	0.0682	0.162	–	–	0.0784	0.0716	–	0.0811	0.0678	–	0.0984	0.0752	–	–	0.0677	0.0362
MGESLFKGPRDYNPISSSICHLTNESDGHTTSLYGIGFGPFIITNKHLFRRNNGTLVVQSLHGVFKVKDTTTLQQHLVDGRDMIIMRMPKDFPPFPQKLKFREPQREERICLVTTNFQTKSMSSMVSDTSCTFPSGDGIFWKHWIQTKDGQCGSPLVSTRDGFIVGIHSASNFTNTNNYFTSVPKNFMELLTNQEAQQWVSGWRLNADSVLWGGHKVFMVKPEEPFQPVKEATQL [I86M]	0.0893	0.0813	0.0591	0.067	0.129	–	–	0.107	0.0712	0.0748	–	0.0513	0.0697	0.115	0.082	–	0.0696	0.0692	0.0565
MGESLFKGPRDYNPISSSICHLTNESDGHTTSLYGIGFGPFIITNKHLFRRNNGTLVVQSLHGVFKVKDTTTLQQHLVDGRDMIIIRMPKDFPPFPQKLKFREPQREERICLVTTNFQTKSMSSMVSDTSCTFPSGDGIFWKHWIQTKDGQCGSPLVSTRDGFIVGIHSASNFTNTNNYFTSVPYNFMELLTNQEAQQWVSGWRLNADSVLWGGHKVFMVKPEEPFQPVKEATQL [K185Y]	0.0976	–	0.069	0.0621	0.0941	0.0332	–	0.0878	0.0661	0.0802	0.075	0.0491	0.0819	0.0481	0.079	–	0.0599	–	0.0584
